# Assay results: the supplement of paper PMC3334620
# The full ranking holds about 33,000 sequences; the median of “E-score (-0.5 to 0.5)” is about -0.054, and the highest 2% start at about 0.35. Some of the results follow.
# Target: T1, Stb5 (UniProt P38699)
# T1 sequence: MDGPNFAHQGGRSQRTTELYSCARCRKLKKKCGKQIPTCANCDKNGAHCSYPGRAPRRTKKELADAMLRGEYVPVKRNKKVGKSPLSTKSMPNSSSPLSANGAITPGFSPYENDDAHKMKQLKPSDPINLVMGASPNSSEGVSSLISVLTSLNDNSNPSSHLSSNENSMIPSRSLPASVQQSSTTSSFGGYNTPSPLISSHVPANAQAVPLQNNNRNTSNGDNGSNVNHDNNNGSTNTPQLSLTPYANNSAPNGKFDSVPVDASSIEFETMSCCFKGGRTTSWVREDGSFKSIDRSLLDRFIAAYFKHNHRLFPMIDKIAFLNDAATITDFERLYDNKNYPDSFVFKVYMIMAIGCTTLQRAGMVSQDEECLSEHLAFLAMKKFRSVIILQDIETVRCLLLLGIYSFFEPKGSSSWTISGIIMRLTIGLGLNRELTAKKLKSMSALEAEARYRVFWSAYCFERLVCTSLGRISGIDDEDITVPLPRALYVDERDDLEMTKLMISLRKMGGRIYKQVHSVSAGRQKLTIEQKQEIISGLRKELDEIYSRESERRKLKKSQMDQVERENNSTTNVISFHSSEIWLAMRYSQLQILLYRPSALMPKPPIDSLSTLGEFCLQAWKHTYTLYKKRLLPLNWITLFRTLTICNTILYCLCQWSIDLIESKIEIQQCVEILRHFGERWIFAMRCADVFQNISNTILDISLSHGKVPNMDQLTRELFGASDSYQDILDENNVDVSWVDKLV
# Test: PBM E-score (8-mer binding enrichment) (E-score (-0.5 to 0.5)); higher = stronger / more preferred TF binding; most listed sequences are background and not binding sites
# Settings: protein concentration: 200 nM; construct: GST-full length
# Description: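 Universal 'all 10-mer' protein binding microarrays (Agilent AMADID 015681) probed with GST-tagged S. cerevisiae TFs (full-length or DBD) made by in vitro transcription/translation (PURExpress), about 100-200 nM. Bound TF was detected with fluorescent anti-GST. Each ungapped 8-mer (which stands for itself and its reverse complement) is scored by the PBM enrichment score (E-score), a modified Wilcoxon-Mann-Whitney statistic from -0.5 to +0.5, computed with the Universal PBM Analysis Suite. Scale: above 0.35 generally sequence-specific binding.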
row,Sequence,PBM E-score
1,ACTTCGTG,-0.0376
2,ACGCGGCT,0.0652
3,AGCTACAT,-0.185
4,CGAAAATC,0.0839
5,TATCGTCA,-0.0711
6,CGAGATCA,-0.0627
7,CATTGCCA,-0.315
8,CCACTCCA,-0.173
9,CTTCGGGA,0.131
10,CCGCGTGA,0.139
11,TCAAGCAA,-0.0991
12,AGCCGACG,0.232
13,ACGGTGCT,0.409
14,CGGCAAGA,0.183
15,CCGGGTCG,0.204
16,GGCACTAA,0.349
17,ACCGGATG,0.158
18,AGGATGAT,-0.134
19,CGACGCGA,-0.02
20,GGCTCAGA,-0.102
21,GGCATCCC,0.052
22,CGTGGTGA,-0.0451
23,CCACACAA,-0.16
24,ACTAGCAA,-0.132
25,CATCCAGA,-0.136

row,Sequence,PBM E-score
1,AGCCCACT,-0.13
2,ACCCGATA,0.114
3,CGGCGCGA,0.373
4,CCACGCCA,-0.269
5,GCTGGTAC,0.0851
6,ACGCGGAC,0.241
7,CTTGTAGC,-0.0769
8,GTCGTAGA,-0.104
9,AGCCCCCT,-0.288
10,CTATGCGC,0.116
11,AGCTCCTA,-0.0757
12,TCTCGCAA,-0.0936
13,GAGGGCTA,-0.166
14,TCTGATCA,-0.171
15,GAGCATCA,-0.135
16,AGTAAGCA,-0.302
17,CAACCTTC,-0.27
18,GCTTTTCC,0.158
19,ACTTTGAT,-0.214
20,GAGTGTTA,-0.153
21,AAAGTACA,-0.247
22,ACATCCAC,0.085
23,AGCCGTCC,0.0676
24,GGTGCTGA,0.0715
25,AAAAATAG,0.105

row,Sequence,PBM E-score
1,AATGGTAC,-0.0817
2,ATGGGAAC,-0.238
3,CCCTATCG,-0.0129
4,ATTCCGAA,0.219
5,ACTTAGTC,0.0386
6,CACGGAAC,0.156
7,AGAAAGGC,-0.0983
8,CGTATAGA,-0.135
9,CGTCCTTC,-0.229
10,TCTAGCAA,-0.0188
11,GCATCTAA,0.21
12,ACTTAAAT,-0.0452
13,ACTGTAAG,0.0547
14,GTGTTAAC,0.142
15,TCGTAGCA,-0.121
16,CGCCCACC,-0.0124
17,TATAGTGA,-0.177
18,GGAGAGAC,-0.0462
19,ATAAAGAT,-0.22
20,ACTTAGAC,-0.0493
21,GCCCTACA,-0.0846
22,AGCTTGTA,-0.239
23,ACGCAGTA,-0.201
24,GGATGTCA,0.0442
25,CCGTGAGA,0.0557

row,Sequence,PBM E-score
1,CTCTGCTA,-0.0312
2,ATGCTCAA,-0.0792
3,CACGTTTC,-0.0643
4,ATCACTGG,-0.108
5,ATCTTGCG,0.0845
6,GGACACAA,0.194
7,CAGTCGCG,-0.0282
8,CCTACCAC,0.0506
9,ATAGCGGG,0.292
10,CATCATAG,-0.0501
11,CTTTACGA,-0.0748
12,CGGTACCA,0.39
13,ATATTAAA,0.245
14,TGTTAAAA,0.0983
15,CCTGAAGC,-0.194
16,AAAAAGGA,-0.0433
17,AAGTCCTG,0.0166
18,TAAGGTGA,-0.00836
19,ACGCAGGC,0.0335
20,CGAAGTAG,0.00691
21,CCTAGGCA,-0.129
22,CAGTAAAC,-0.00851
23,ACGTTAGC,-0.0627
24,ATGTACTG,-0.172
25,ACGGCTCC,0.062

row,Sequence,PBM E-score
1,CTCAGGTA,-0.183
2,GAGGCCTC,-0.328
3,ACAACGAC,0.0269
4,ATTAATAC,0.0798
5,CCTTACTC,0.0597
6,GCGGTGGA,0.177
7,AGGCGGAT,0.0922
8,CACTTCTC,-0.177
9,ATTGCGAC,0.0428
10,CTCCCGAG,-0.213
11,CGGCTGAG,-0.172
12,AGCTTATC,-0.0438
13,CGAGTGCA,-0.00695
14,CTCGTAAG,0.0212
15,GCATGTAC,0.0506
16,GGTGAGCA,-0.097
17,CATAGCAA,-0.146
18,GAAGTCGA,-0.259
19,AACTGTTG,-0.29
20,GATTCCCC,0.0389
21,ATGGTTTG,-0.0136
22,ATAGCAGA,-0.0949
23,AAGCCGCA,0.147
24,GCTCTCAA,-0.239
25,AGCCAAGC,-0.198

row,Sequence,PBM E-score
1,CTGGTACA,-0.194
2,GGGGACTA,-0.0234
3,GAAAGGCC,0.348
4,GGGAACCA,-0.172
5,CAAAACAG,-0.0698
6,AGTAAAGA,0.143
7,AATTTATC,0.167
8,ACCTGGAC,-0.216
9,CTAGATAC,0.0359
10,AATCGGAG,0.263
11,AAAACTAT,0.047
12,CAAGACAA,-0.112
13,GGGTGCCA,-0.012
14,TGCTCCCA,-0.298
15,AGCCACCG,0.265
16,CTAGGTCC,0.2
17,GCGACAGA,0.0503
18,GAACACCC,0.0757
19,CTACAAAA,-0.0352
20,AATCTTTG,-0.297
21,GCAGCTGA,-0.0273
22,TTGTACAA,-0.314
23,AGGTAAAA,0.137
24,GTCCACAC,0.162
25,CTGGAATA,-0.0237

row,Sequence,PBM E-score
1,ACTGAGTA,-0.294
2,GATATATC,0.307
3,AAGACCAG,-0.107
4,AACTACGC,0.124
5,CGTTTAGA,0.0366
6,GAGCGCCA,0.108
7,ATAGCCGC,0.312
8,CGTCGACC,0.00836
9,ACTCCATA,-0.00832
10,ACGGCGCG,0.186
11,CACCGCAG,0.344
12,GTAGCAAC,-0.113
13,CACGTTGG,-0.29
14,AACAGGCA,-0.186
15,CTTACACA,-0.124
16,GTCACCCA,-0.0904
17,ACATTTCA,-0.095
18,AATCCCGA,0.394
19,ATAATGCA,0.0012
20,ATAGTTCA,0.00051
21,GCCGGAAC,0.266
22,ACACCCGG,0.234
23,AGTTGCAT,-0.0338
24,CGTGGAAA,0.0968
25,ACAGCAAA,-0.0535

row,Sequence,PBM E-score
1,CTTGCTCA,-0.194
2,ACATACAT,-0.0182
3,AATATGGG,-0.244
4,CGCAGCAC,0.0723
5,AGAGCATA,-0.0737
6,GCTCGGAC,0.242
7,ATTCTTGC,0.0606
8,CGTCTGCC,0.178
9,AGGAAAAA,-0.215
10,GCCGCAAA,0.182
11,TATTAGAA,-0.136
12,ACCCTAAA,-0.0556
13,GCAGGTAC,-0.0218
14,ACCATGGG,-0.119
15,GTATACTA,-0.0132
16,CCCATGGG,-0.194
17,AGAAGCAT,-0.0965
18,CGTAATGC,0.178
19,TCAAGAAA,0.0175
20,AATACCTA,-0.168
21,AAAGCGAT,-0.0748
22,CGCTACAG,0.0486
23,ATGCTACC,0.107
24,CACCAAGG,0.0902
25,GAGAAAAA,0.213

row,Sequence,PBM E-score
1,TCCGGTAA,0.266
2,ATTCGATA,0.0602
3,GGAAAAAA,0.141
4,CAAGACGC,0.0349
5,ACGATCTC,-0.0682
6,ATATCGAA,0.0274
7,AAGAAAAC,0.0499
8,ATACGGAC,0.247
9,CTATGTCC,0.232
10,CCTGGTTC,-0.0702
11,AAGGTTCT,-0.142
12,CGCGAATA,0.0339
13,CAGACGTC,-0.0297
14,CAGAAATC,-0.12
15,ACCCACAG,-0.204
16,CGATTTTA,0.181
17,CCGTGAAC,0.0346
18,AGAAAATC,0.0227
19,AGATCGAT,-0.317
